Laboratory results published in the supplement of paper PMC3334620.
In all, about 33,000 sequences were measured (“E-score (-0.5 to 0.5)”: median about -0.043, highest 2% from about 0.37 on). The list shows a part of the results.

target: T1, Upc2 (UniProt Q12151); test: PBM E-score (8-mer binding enrichment) (E-score (-0.5 to 0.5)); higher = stronger / more preferred TF binding; most listed sequences are background and not binding sites; settings: protein concentration: 200 nM; construct: GST-full length
T1 sequence: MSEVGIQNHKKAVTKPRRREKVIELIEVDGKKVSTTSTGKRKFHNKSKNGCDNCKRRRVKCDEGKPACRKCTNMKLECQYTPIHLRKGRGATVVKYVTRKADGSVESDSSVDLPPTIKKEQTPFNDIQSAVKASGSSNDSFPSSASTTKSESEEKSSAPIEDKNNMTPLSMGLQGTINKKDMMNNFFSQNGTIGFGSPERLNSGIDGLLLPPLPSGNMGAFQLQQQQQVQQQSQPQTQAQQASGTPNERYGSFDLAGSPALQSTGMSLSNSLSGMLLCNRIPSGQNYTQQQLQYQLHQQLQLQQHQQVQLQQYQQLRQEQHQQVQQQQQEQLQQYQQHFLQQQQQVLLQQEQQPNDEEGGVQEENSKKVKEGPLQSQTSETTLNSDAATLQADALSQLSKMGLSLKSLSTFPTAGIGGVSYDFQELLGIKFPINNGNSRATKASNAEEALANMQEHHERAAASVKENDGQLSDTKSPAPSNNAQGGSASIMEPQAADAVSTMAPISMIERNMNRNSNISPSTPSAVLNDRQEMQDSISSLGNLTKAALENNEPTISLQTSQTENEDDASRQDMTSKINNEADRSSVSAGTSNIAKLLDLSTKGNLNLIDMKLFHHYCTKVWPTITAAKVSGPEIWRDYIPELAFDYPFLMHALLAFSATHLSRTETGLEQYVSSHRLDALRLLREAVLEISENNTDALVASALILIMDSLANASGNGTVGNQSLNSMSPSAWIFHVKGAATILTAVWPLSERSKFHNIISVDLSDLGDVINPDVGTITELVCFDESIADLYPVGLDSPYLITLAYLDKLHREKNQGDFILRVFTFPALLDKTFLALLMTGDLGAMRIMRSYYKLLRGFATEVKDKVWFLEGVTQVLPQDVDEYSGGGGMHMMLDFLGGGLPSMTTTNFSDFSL
Procedure, shortened: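 Each ungapped eight-base word and its reverse complement, pooled, received an E-score from the Universal PBM Analysis Suite. Underlying scans, normalised with masliner, recorded fluorescent anti-GST bound to GST-tagged yeast transcription factors. These were applied at about 100-200 nM to universal all-10-mer Agilent arrays double-stranded by primer extension.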

Row | Sequence | PBM E-score
1 | ACATGGGC | -0.212
2 | CACGGAAG | -0.232
3 | GAGCGCGA | 0.111
4 | AACGTAGC | 0.136
5 | ATGACTTA | -0.00461
6 | GCTGCTCC | -0.203
7 | GAGTGATC | -0.0886
8 | ATTTACGA | 0.45
9 | ATCTGACC | 0.121
10 | TAGGCAGA | -0.114
11 | GCTGGGCA | -0.103
12 | AGGTCCTC | 0.0108
13 | AGCGTGAA | -0.0302
14 | ACCAACTA | 0.0588
15 | TCCGGAGA | -0.214
16 | CATCATCG | -0.0677
17 | CCACCTAG | -0.209
18 | AAGACCGC | -0.0359
19 | ATACGTGA | 0.301
20 | CCCAGCCA | -0.0649
21 | ATGTCTAG | -0.149
22 | CCTCGGTA | 0.146
23 | ACGTCTTC | 0.0586
24 | ACCTATGC | -0.0457
25 | CGCGTTAG | -0.0219

Row | Sequence | PBM E-score
26 | ATGAACTA | 0.0188
27 | GATGGTGC | 0.014
28 | AGGTGCTA | -0.0228
29 | AGGCCGGC | -0.327
30 | CCCGTTAG | -0.147
31 | ATATGAAT | -0.0329
32 | ACCCCAGC | -0.195
33 | CCCGACAG | -0.221
34 | ATTACGAA | 0.339
35 | ACGCAAAC | 0.294
36 | CGGCATAG | -0.0559
37 | TATTTTAA | 0.172
38 | CCCATCAG | -0.245
39 | CGAGGTCA | 0.179
40 | GCTCCCGA | -0.166
41 | CAAAATCA | -0.00479
42 | TCTCAAGA | -0.386
43 | CGTATGGC | 0.413
44 | GTCTTGGA | -0.347
45 | CCGCGCCC | -0.301
46 | AAGAGTAC | 0.0697
47 | AATAGAGC | -0.0115
48 | GGCCCGGA | -0.181
49 | AAGCATCA | -0.197
50 | ACCACTTC | -0.0166

Row | Sequence | PBM E-score
51 | AACGCAAT | 0.138
52 | CGGTGTAG | 0.0105
53 | ATAGTACA | 0.149
54 | AGCTGCGC | -0.0694
55 | TAAATCTA | -0.05
56 | AGGGAAGG | -0.278
57 | CCATTCTC | -0.165
58 | ACTTGCGC | 0.0996
59 | AGATAGGA | -0.185
60 | ACATCGAA | 0.168
61 | AGGAGTAG | -0.228
62 | CAACAAGA | 0.0115
63 | AGGACCAA | -0.0993
64 | AACTCCAA | -0.279
65 | CATAAAAG | -0.00852
66 | CCACCTAC | -0.298
67 | AGCGTGCC | -0.0881
68 | ACTGGCTA | -0.325
69 | CTCAGTAC | 0.0767
70 | GAGTTCCA | -0.0401
71 | CGCCCCAA | -0.119
72 | GCTGTCCC | 0.0523
73 | CGTTTCTC | 0.209
74 | AAAAGGAT | -0.0713
75 | GACGTCAC | -0.319

Row | Sequence | PBM E-score
76 | ACCATAAC | 0.0503
77 | CCTCTGTC | 0.0289
78 | CACGTAAA | 0.253
79 | ACTTACAT | 0.0328
80 | AGAAACAC | -0.0232
81 | CCCGCTAC | 0.216
82 | CCAACCAC | -0.042
83 | AACTCACA | -0.127
84 | TCGGGCCA | -0.175
85 | ACTCTTTG | -0.206
86 | ACTACCCT | -0.221
87 | ACCCTTAA | 0.0556
88 | AGCTGCAC | -0.162
89 | GACTCCAC | -0.226
90 | CTAAGAAA | 0.0673
91 | GCAGGCAC | -0.282
92 | ACGACCGT | 0.338
93 | AGGATCGC | 0.015
94 | CGAGTACA | 0.232
95 | ACCAACAC | 0.0529
96 | CCGTCCAA | -0.133
97 | GGGCGGGA | 0.145
98 | AGCGTTTG | 0.149
99 | CGGAGTGC | -0.0805
100 | ACAGGGGT | -0.166

Row | Sequence | PBM E-score
101 | AGCAGCAA | -0.222
102 | CGAACGCA | 0.162
103 | GCGCCTCA | -0.142
104 | ATCGCGGC | 0.0113
105 | CCATGCAG | -0.255
106 | ACATTTCT | -0.0103
107 | AGGGCAAC | -0.339
108 | CACTCAAG | -0.112
109 | AACCGGCA | -0.151
110 | AAAACAAC | -0.103
111 | CAGGTTGA | -0.0492
112 | CCTCCATC | 0.0545
113 | CACATAGG | -0.207
114 | AAAATAAG | 0.0102
115 | ATTGCTTC | 0.0491
116 | GCTTCTAA | -0.126
117 | CGCAACAA | -0.03
118 | CCCTTAAA | 0.0133
119 | ATTTCCAG | -0.0385
120 | CCCATATC | -0.0647
121 | TCGTTACA | 0.294
122 | GGTAGGGA | -0.155
123 | AAGGCCGG | -0.119
124 | CAAAGTTA | -0.0595
125 | ATCTTAAT | -0.0519

Row | Sequence | PBM E-score
126 | CTGGTTAC | -0.118
127 | CAAGCGAA | 0.269
128 | TCGGCCCA | -0.13
129 | ATTTGGGG | -0.0428
130 | GGCTCGGA | 0.0556
131 | GAGGCGAC | -0.104
132 | AGCAACTA | -0.0306
133 | CCTTAGTC | -0.0974
134 | AATCCATC | -0.0888
135 | CTGTAGCA | -0.108
136 | GCTTAGAA | 0.0693
137 | ATTTCCCC | -0.221
138 | GATGCACA | 0.127
139 | GTTGTCGA | -0.0686
140 | ATGATGTA | 0.00759
141 | AGCACATA | -0.0959
142 | ACTCGGGC | -0.171
143 | AGGTGGTG | -0.0977
144 | CTATAGAA | -0.16
145 | GATGATCC | 0.0445
146 | CTAACCGC | 0.0621
147 | CCGGAGAG | -0.151
148 | ATGCTTTC | -0.0854
149 | GGTATTTA | -0.0648
150 | AAAAGAAG | -0.0315

Row | Sequence | PBM E-score
151 | ACGGACCG | 0.177
152 | GAACTTGA | 0.0615
153 | TAGTCGGA | -0.0269
154 | CTAACTCC | -0.182
155 | TTATCGAA | 0.0432
156 | ATCGTAGA | 0.337
157 | AACGAAAA | 0.368
158 | AACGAGAA | 0.422
159 | CTTACGTA | 0.235
160 | AACTTTCC | -0.281
161 | TACCTACA | -0.0678
162 | ATAAGAAA | 0.17
163 | ACTAACCG | 0.219
164 | ACCCGAGT | 0.199
165 | ACAAAGCG | 0.0821
166 | GATTAACA | -0.00617
167 | ACGGAGAC | 0.0586
168 | GCTAGCGA | -0.0392
169 | AAGTTATA | 0.0992
170 | ACCGAACC | 0.0637
171 | ATGCTAGA | -0.0503
172 | GGCGTATA | 0.434
